Hit rate of the full screen: of about 150,000 compounds, about 540 (0.36%) showed an effect of 50% or more. The list shows a part of the results.
The compounds below were run on Plasmodium falciparum (assay: Primary screen in NF54 nanoGlo assay, in single point, at 2uM, 72h; a lower Z score goes with more inhibition). Details: timepoint 72 hour.
Type: functional, Erythrocyte

First: Cc1cnc(CN2C[C@H](OC(C)C)[C@@H](O)C2)cn1
Second: CN(C)C[C@@H]1CN(c2ncccn2)C[C@H]1NC(=O)Cc1cccc(Cl)c1
The “% Inhibition” value of the first is lower: -9% for the first, -8% for the second.

First: CCO[C@@H](C)C(=O)NCCCc1ncc[nH]1
Second: CCc1ccc(C(=O)N[C@@H](C)Cn2ccnc2)o1
The “% Inhibition” value of the first is lower: -1% for the first, 12% for the second.

Going from O=C(NCCN1CCc2ccccc2C1=O)c1cc[nH]c1C1CC1 to Cn1cccc1CN(C(=O)c1c(F)cccc1F)C1CC1, the “% Inhibition” value falls from -5% to -7%.

Going from N#Cc1nccnc1NCCc1cnn(-c2ccccc2)c1 to c1ccc([C@@H](NCc2ccc3occc3c2)c2nnc[nH]2)cc1, the “% Inhibition” value rises from -8% to 1%.

First: CCC1(CC)CCN(C(=O)Cc2ccc(-n3cnnc3)cc2)C1
Second: CCc1nn(-c2ccc(OC)cc2)c(Oc2ccc(C)cc2)c1CCC(=O)NCCN1CCCC1
The “% Inhibition” value of the first is lower: -4% for the first, 0% for the second.

Compared with CCn1nccc1C(=O)N1CCOc2ccc(NC(=O)COC)cc2C1, O=C1CN(C(=O)c2ccc3c(c2)OCCO3)CCN1 is higher in “% Inhibition” value: -5% for the first, 2% for the second.

Going from CC1(C)CN(Cc2ccccc2)CCC1NC(=O)N1CCOC(C#N)C1 (stereo not drawn) to CC1(C)CC(NC(=O)C2(c3ccccc3)CCC(=O)NC2)CCO1 (stereo not drawn), the “% Inhibition” value rises from -8% to -5%.

Going from Cn1c(=O)c2ccccc2n(CC(=O)Nc2ccc3c(c2)CCC3)c1=O to O=C(CCc1nc(O)c2ccccc2n1)Nc1cccc(S(=O)(=O)N2CCOCC2)c1, the “% Inhibition” value falls from -5% to -9%.

First: N#CCN[C@H](c1cc(F)ccc1F)C1CC1
Second: N#Cc1ccc(S(N)(=O)=O)c(F)c1
The “% Inhibition” value of the first is lower: -11% for the first, -5% for the second.

First: CC1(CNC(=O)C2CCCOC2)CCN(C(=O)C2CCCOC2)C1 (stereo not drawn)
Second: CNC(=O)CN1CCCCC1C1CCCN(C(=O)OC(C)(C)C)C1 (stereo not drawn)
The “% Inhibition” value of the first is higher: 13% for the first, 1% for the second.

First: CCCc1ccc(CN2CCC[C@@](O)(CN(C)C)C2)o1
Second: COCCC(=O)N1CC[C@H](c2nc3ccccc3o2)C1
The “% Inhibition” value of the first is higher: -3% for the first, -8% for the second.

First: Cc1cc(CN2CCN(C(=O)c3ccc4[nH]ccc4c3)CC2)on1
Second: O=C(c1ccccc1)N1CCN(Cc2csc(-c3ccsc3)n2)CC1
The “% Inhibition” value of the first is lower: -11% for the first, -4% for the second.

First: Cc1nnc(NC(=O)c2ccc(=O)n(Cc3ccc(Cl)cc3)c2)s1
Second: CCOc1ccc(NC(=O)N[C@H]2CCN(c3ccc(F)c(C)c3)C2=O)cc1
The “% Inhibition” value of the first is lower: -15% for the first, 2% for the second.

First: C[C@H](NCC(C)(C)C(N)=O)c1ccccc1N(C)C
Second: CN(C(=O)Cn1cnc2c(nnn2C)c1=O)c1ccccc1
The “% Inhibition” value of the first is higher: -1% for the first, -4% for the second.

Going from O=C(CNC1(c2ccc(F)cc2)CCC1)NCc1ccco1 to COc1ccc(CNC(=O)[C@H]2CCCN(Cc3ccco3)C2)c(F)c1F, the “% Inhibition” value falls from -4% to -6%.

Compared with COc1ccc([C@]23CCC(=O)N2c2ccccc2N3)cc1, COc1ccc([C@H]2C[C@H]3CC[C@@H](C2)N3C(=O)c2cn3cccnc3n2)cc1 is higher in “% Inhibition” value: -15% for the first, 3% for the second.

Going from CC(C)C(NCC1CCCC(C)(C)C1)C(=O)O (stereo not drawn) to CC(C)(C)OCC(O)CN1CCCC1C(N)=O (stereo not drawn), the “% Inhibition” value falls from 28% to 1%.

First: CCCC1(CCC)NC(=O)N(CC(=O)NC)C1=O
Second: CON(C)CCNCc1c(C)nc2sc(C)cn12
The “% Inhibition” value of the first is higher: -6% for the first, -10% for the second.

First: CN(C)c1cccc(C(=O)N2CCNC[C@H]2C(=O)N2CCOCC2)c1
Second: COc1ccc(OC)c2c1cc1n2C[C@@](C)(C(=O)NC2CCCC2)N(CCN2CCOCC2)C1=O
The “% Inhibition” value of the first is lower: -6% for the first, 2% for the second.

First: O=C(Nc1ccc(N2CCc3sccc3C2)cc1)NC1CCCC1
Second: O=C(Nc1ccc(Cl)cc1)N1CC(c2nc(-c3ncccn3)no2)C1
The “% Inhibition” value of the first is lower: 2% for the first, 5% for the second.

Compared with CC1CC(C(=O)N2CC3(CN(C)C(=O)O3)C2)CC(C)(C)C1 (stereo not drawn), Cc1c(C(=O)N2CCCCC2)c(S(=O)(=O)N2CCC(C)CC2)c(C)n1C is lower in “% Inhibition” value: -5% for the first, -15% for the second.

First: Cc1nc(N2CCC[C@H](C(=O)NCC3CCCCC3)C2)nc2cc(S(C)(=O)=O)ccc12
Second: CCN(Cc1cc2ccccc2nc1O)C(=O)C1CCCCC1
The “% Inhibition” value of the first is higher: 12% for the first, 0% for the second.

Compared with O=C(O)c1csc(CN2CCC(c3nc4c(s3)CCC4)CC2)c1, C[C@@H](CC1CCCC1)C(=O)N1CCC(c2ncco2)CC1 is higher in “% Inhibition” value: -13% for the first, -8% for the second.

First: CO[C@H]1CN(C2CCN(C(=O)Nc3ccccc3F)CC2)[C@H]1c1ccncc1
Second: O=C(NCc1ccncc1)C1(F)CCN(S(=O)(=O)c2cccc(F)c2)CC1
The “% Inhibition” value of the first is higher: -11% for the first, -13% for the second.

Going from Cc1nc2c(c(N(C)C)n1)CCN(C(=O)c1cc(C)c3nc(N)sc3c1)C2 to Cc1ccc(C)c2sc(NCCN3CCOCC3)nc12, the “% Inhibition” value falls from 1% to -4%.

Going from CCCCn1c(NC(=O)c2ccccc2)c(S(=O)(=O)c2ccc(C)cc2)c2nc3ccccc3nc21 to CC(=O)Nc1ccc(NC(=O)C2CCN(S(=O)(=O)c3ccc(-c4cc(C)n[nH]4)o3)CC2)cc1, the “% Inhibition” value falls from 0% to -8%.

First: O=C(c1cccnc1)N1CCc2cc3ccc2[C@@H]1c1cccc(c1)OCCCn1cc(nn1)CO3
Second: Cc1ccc(F)cc1C1(c2noc([C@@H]3CCCC[C@@H]3N)n2)CC1
The “% Inhibition” value of the first is lower: -20% for the first, 0% for the second.

Going from Cc1cnc(CN2C[C@H](OC(C)C)[C@@H](O)C2)cn1 to CN(C)C[C@@H]1CN(c2ncccn2)C[C@H]1NC(=O)Cc1cccc(Cl)c1, the Z score falls from 1.82 to 1.23.

First: CCO[C@@H](C)C(=O)NCCCc1ncc[nH]1
Second: CCc1ccc(C(=O)N[C@@H](C)Cn2ccnc2)o1
The Z score of the first is higher: 0.13 for the first, -1.59 for the second.

Going from O=C(NCCN1CCc2ccccc2C1=O)c1cc[nH]c1C1CC1 to Cn1cccc1CN(C(=O)c1c(F)cccc1F)C1CC1, the Z score rises from 0.7 to 1.43.

Compared with N#Cc1nccnc1NCCc1cnn(-c2ccccc2)c1, c1ccc([C@@H](NCc2ccc3occc3c2)c2nnc[nH]2)cc1 is lower in Z score: 1.25 for the first, -0.07 for the second.

Compared with CCC1(CC)CCN(C(=O)Cc2ccc(-n3cnnc3)cc2)C1, CCc1nn(-c2ccc(OC)cc2)c(Oc2ccc(C)cc2)c1CCC(=O)NCCN1CCCC1 is lower in Z score: 0.83 for the first, -0.02 for the second.

Going from CCn1nccc1C(=O)N1CCOc2ccc(NC(=O)COC)cc2C1 to O=C1CN(C(=O)c2ccc3c(c2)OCCO3)CCN1, the Z score falls from 0.99 to -0.44.

First: CC1(C)CN(Cc2ccccc2)CCC1NC(=O)N1CCOC(C#N)C1 (stereo not drawn)
Second: CC1(C)CC(NC(=O)C2(c3ccccc3)CCC(=O)NC2)CCO1 (stereo not drawn)
The Z score of the first is higher: 1.6 for the first, 0.68 for the second.

Compared with Cn1c(=O)c2ccccc2n(CC(=O)Nc2ccc3c(c2)CCC3)c1=O, O=C(CCc1nc(O)c2ccccc2n1)Nc1cccc(S(=O)(=O)N2CCOCC2)c1 is higher in Z score: 0.78 for the first, 1.01 for the second.

Going from N#CCN[C@H](c1cc(F)ccc1F)C1CC1 to N#Cc1ccc(S(N)(=O)=O)c(F)c1, the Z score falls from 1.54 to 0.64.

Compared with CC1(CNC(=O)C2CCCOC2)CCN(C(=O)C2CCCOC2)C1 (stereo not drawn), CNC(=O)CN1CCCCC1C1CCCN(C(=O)OC(C)(C)C)C1 (stereo not drawn) is higher in Z score: -1.77 for the first, -0.16 for the second.

Going from CCCc1ccc(CN2CCC[C@@](O)(CN(C)C)C2)o1 to COCCC(=O)N1CC[C@H](c2nc3ccccc3o2)C1, the Z score rises from 0.53 to 1.23.

First: Cc1cc(CN2CCN(C(=O)c3ccc4[nH]ccc4c3)CC2)on1
Second: O=C(c1ccccc1)N1CCN(Cc2csc(-c3ccsc3)n2)CC1
The Z score of the first is higher: 2.07 for the first, 0.76 for the second.

Compared with Cc1nnc(NC(=O)c2ccc(=O)n(Cc3ccc(Cl)cc3)c2)s1, CCOc1ccc(NC(=O)N[C@H]2CCN(c3ccc(F)c(C)c3)C2=O)cc1 is lower in Z score: 1.84 for the first, -0.24 for the second.

First: C[C@H](NCC(C)(C)C(N)=O)c1ccccc1N(C)C
Second: CN(C(=O)Cn1cnc2c(nnn2C)c1=O)c1ccccc1
The Z score of the first is lower: 0.13 for the first, 0.58 for the second.

First: O=C(CNC1(c2ccc(F)cc2)CCC1)NCc1ccco1
Second: COc1ccc(CNC(=O)[C@H]2CCCN(Cc3ccco3)C2)c(F)c1F
The Z score of the first is lower: 0.42 for the first, 1.1 for the second.

First: COc1ccc([C@]23CCC(=O)N2c2ccccc2N3)cc1
Second: COc1ccc([C@H]2C[C@H]3CC[C@@H](C2)N3C(=O)c2cn3cccnc3n2)cc1
The Z score of the first is higher: 1.61 for the first, -0.59 for the second.

Going from CC(C)C(NCC1CCCC(C)(C)C1)C(=O)O (stereo not drawn) to CC(C)(C)OCC(O)CN1CCCC1C(N)=O (stereo not drawn), the Z score rises from -3.11 to -0.08.

Compared with CCCC1(CCC)NC(=O)N(CC(=O)NC)C1=O, CON(C)CCNCc1c(C)nc2sc(C)cn12 is higher in Z score: 0.55 for the first, 1.36 for the second.

Going from CN(C)c1cccc(C(=O)N2CCNC[C@H]2C(=O)N2CCOCC2)c1 to COc1ccc(OC)c2c1cc1n2C[C@@](C)(C(=O)NC2CCCC2)N(CCN2CCOCC2)C1=O, the Z score falls from 0.82 to -0.39.

First: O=C(Nc1ccc(N2CCc3sccc3C2)cc1)NC1CCCC1
Second: O=C(Nc1ccc(Cl)cc1)N1CC(c2nc(-c3ncccn3)no2)C1
The Z score of the first is higher: -0.3 for the first, -1.01 for the second.

Going from CC1CC(C(=O)N2CC3(CN(C)C(=O)O3)C2)CC(C)(C)C1 (stereo not drawn) to Cc1c(C(=O)N2CCCCC2)c(S(=O)(=O)N2CCC(C)CC2)c(C)n1C, the Z score rises from 0.67 to 2.86.

Going from Cc1nc(N2CCC[C@H](C(=O)NCC3CCCCC3)C2)nc2cc(S(C)(=O)=O)ccc12 to CCN(Cc1cc2ccccc2nc1O)C(=O)C1CCCCC1, the Z score rises from -1.67 to -0.01.

Going from O=C(O)c1csc(CN2CCC(c3nc4c(s3)CCC4)CC2)c1 to C[C@@H](CC1CCCC1)C(=O)N1CCC(c2ncco2)CC1, the Z score falls from 1.35 to 0.76.

Compared with CO[C@H]1CN(C2CCN(C(=O)Nc3ccccc3F)CC2)[C@H]1c1ccncc1, O=C(NCc1ccncc1)C1(F)CCN(S(=O)(=O)c2cccc(F)c2)CC1 is higher in Z score: 1.41 for the first, 1.63 for the second.

Going from Cc1nc2c(c(N(C)C)n1)CCN(C(=O)c1cc(C)c3nc(N)sc3c1)C2 to Cc1ccc(C)c2sc(NCCN3CCOCC3)nc12, the Z score rises from -0.17 to 0.42.

First: CCCCn1c(NC(=O)c2ccccc2)c(S(=O)(=O)c2ccc(C)cc2)c2nc3ccccc3nc21
Second: CC(=O)Nc1ccc(NC(=O)C2CCN(S(=O)(=O)c3ccc(-c4cc(C)n[nH]4)o3)CC2)cc1
The Z score of the first is lower: -0.03 for the first, 1.33 for the second.

Compared with O=C(c1cccnc1)N1CCc2cc3ccc2[C@@H]1c1cccc(c1)OCCCn1cc(nn1)CO3, Cc1ccc(F)cc1C1(c2noc([C@@H]3CCCC[C@@H]3N)n2)CC1 is lower in Z score: 2.5 for the first, -0.05 for the second.

— ChEMBL document CHEMBL4888484, “Replenishing the malaria drug discovery pipeline: Screening and hit evaluation of the MMV Hit Generation Library 1 (HGL1) against asexual blood stage Plasmodium falciparum ,using a nano luciferase reporter read-out” (2022)
